# Measured values as given in paper PMC6212790.
# The list shows a part of the results. At the low end of the ranking the order means little.
# Target: T1, GST-Rok-C97-191 (UniProt O34857)
# T1 sequence: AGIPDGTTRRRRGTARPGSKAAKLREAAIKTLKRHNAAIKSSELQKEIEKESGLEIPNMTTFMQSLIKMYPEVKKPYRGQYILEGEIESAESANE
# Test: protein binding microarray;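 note: rank score from −0.5 (least bound) to 0.5 (best bound)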
# Conditions: Rok is a gene silencer of Bacillus subtilis; high values mean tight binding; most listed sequences are background and not binding sites; double strand, one strand shown
row,Sequence,binding signal
1,ACCTGAGG,-0.0337 E-score
2,AAGGCAGA,-0.388 E-score
3,CAGCGCCA,-0.346 E-score
4,ACTAACGG,0.108 E-score
5,TCTAGGCA,-0.0549 E-score
6,TCAAATGA,-0.0314 E-score
7,AGACCTTG,-0.191 E-score
8,CGAGTTAG,0.0933 E-score
9,ACCCCATA,-0.221 E-score
10,AGCCCTGA,-0.247 E-score
11,ATGATGAC,0.0534 E-score
12,GATAGCCA,-0.0728 E-score
13,CGCGTCCC,-0.287 E-score
14,CGCTATTA,0.195 E-score
15,AGTGGATG,-0.131 E-score
16,AGGGCATC,-0.277 E-score
17,CGCGCTAC,-0.0357 E-score
18,AGTGGACA,-0.00917 E-score
19,TAAGAAGA,0.0262 E-score
20,AAGTTTTC,0.112 E-score
21,ATAAGGAC,-0.0777 E-score
22,CCTTATCC,-0.0314 E-score
23,ATCCGGTC,-0.0436 E-score
24,AGCTGAAA,0.0089 E-score
25,ACTTAAAA,0.0575 E-score

row,Sequence,binding signal
1,AACCTCTG,-0.177 E-score
2,AATACAAA,0.313 E-score
3,ATCTATTG,0.252 E-score
4,GAGTACTA,0.0418 E-score
5,GCCGGCCA,-0.177 E-score
6,GGCGAACC,-0.0946 E-score
7,CTTTAATA,0.178 E-score
8,GAAGGATC,-0.0869 E-score
9,GGCCCTCA,-0.343 E-score
10,AAGGTGGC,-0.203 E-score
11,CTGGATCC,-0.183 E-score
12,ACTATTAA,0.302 E-score
13,ACTCTGGA,-0.0876 E-score
14,TAGTTTCA,0.361 E-score
15,ACGGGTCA,-0.188 E-score
16,AATTGGTG,-0.063 E-score
17,CATGACCC,-0.0304 E-score
18,AAATAAAT,0.144 E-score
19,AACGAATA,0.0885 E-score
20,CATTGAAA,-0.0234 E-score
21,CGCGCTGC,-0.234 E-score
22,CATCAGCA,0.122 E-score
23,AGGTGAGG,-0.0995 E-score
24,GCTCTCAA,-0.0958 E-score
25,ACATGGAG,0.0916 E-score

row,Sequence,binding signal
1,CACGGACC,-0.269 E-score
2,GGAGTCGA,-0.16 E-score
3,ATCCTGGC,0.0703 E-score
4,GGCATTAA,-0.0261 E-score
5,GCAAGTGC,-0.0176 E-score
6,GCATTAGC,0.00966 E-score
7,ATCATAAC,0.129 E-score
8,CACGGAGG,-0.299 E-score
9,AATGTAAG,0.112 E-score
10,TCCACGAA,-0.0391 E-score
11,CATCCTTA,0.0396 E-score
12,AGTCAACA,-0.0737 E-score
13,CGCGCCAA,-0.117 E-score
14,TAAAATTA,0.306 E-score
15,TAAAGTTA,0.0978 E-score
16,CCAATTCA,-0.126 E-score
17,CAATAACA,-0.0401 E-score
18,AAACGCGT,0.0909 E-score
19,GGTCTCAA,-0.108 E-score
20,AGTAGTGA,0.121 E-score
21,CGCTAAAG,0.0345 E-score
22,CGCATCCA,-0.00168 E-score
23,GAGTTTCA,-0.0326 E-score
24,ATCGTGAA,0.0491 E-score
25,GGAGTCCA,-0.216 E-score

row,Sequence,binding signal
1,ATAGTCGA,0.0241 E-score
2,CTAACGTA,0.0977 E-score
3,TCAGCACA,0.00937 E-score
4,AAGAATGC,-0.0181 E-score
5,CAACCCAC,-0.242 E-score
6,CTTTTTAA,0.0854 E-score
7,CACCGGAC,-0.0977 E-score
8,ATCGAGTA,0.218 E-score
9,AAAAGGGG,-0.252 E-score
10,ACCCAGGA,-0.0977 E-score
11,ACGTTTAC,0.0121 E-score
12,GACTTACC,0.0874 E-score
13,AAATGCGT,-0.0125 E-score
14,ACTTGACT,-0.0226 E-score
15,GATCACCC,-0.283 E-score
16,GTGCCCAC,-0.14 E-score
17,TAGTACAA,0.311 E-score
18,ACACGGCG,-0.236 E-score
19,CACTACAA,0.173 E-score
20,TCCCTTAA,-0.0648 E-score
21,CCCCAACA,-0.0678 E-score
22,CGTCTACC,-0.0348 E-score
23,AGCCACTG,-0.26 E-score
24,CCGATAGC,0.0218 E-score
25,CACTCGAA,0.0354 E-score

row,Sequence,binding signal
1,TACCGGTA,0.355 E-score
2,CGGACAAC,-0.0352 E-score
3,GAGGTTGA,-0.067 E-score
4,AGGGCAAG,-0.251 E-score
5,AACATAGT,0.184 E-score
6,GGGCTATA,0.157 E-score
7,CAAGGAGA,-0.113 E-score
8,AATTAGGG,0.00788 E-score
9,CTACGCTC,0.0379 E-score
10,GATGCCAC,-0.166 E-score
11,GTCTAGAC,-0.0432 E-score
12,AGCCGAGA,-0.0879 E-score
13,ATTAGACG,0.0479 E-score
14,ACCGTCGC,-0.194 E-score
15,GCCGGCGA,-0.228 E-score
16,GGGTGGAC,-0.267 E-score
17,AATCCCGG,-0.153 E-score
18,ACTGGTTA,0.0888 E-score
19,ACAGGGAT,-0.128 E-score
20,GGACGCGA,-0.308 E-score
21,CATTAAAG,0.0022 E-score
22,AAGATTTC,0.0786 E-score
23,CAGTTAAG,-0.0106 E-score
24,CACACCCG,-0.162 E-score
25,CCACTTCG,-0.169 E-score

row,Sequence,binding signal
1,AACGGGTA,0.126 E-score
2,ACGTCCAG,-0.068 E-score
3,GCAATTGC,0.135 E-score
4,CTGTGGCA,-0.306 E-score
5,CGTACAAA,0.236 E-score
6,AGAATGCG,0.105 E-score
7,CGTCATCA,-0.157 E-score
8,AGCAATCC,-0.0141 E-score
9,AGGTCTAC,0.036 E-score
10,GAACATTA,0.0913 E-score
11,GATCAATC,0.0299 E-score
12,ATACGTTA,0.153 E-score
13,AAGTGCGA,-0.094 E-score
14,TCAAGCAA,-0.0673 E-score
15,CAAATCAG,-0.0544 E-score
16,ATTGGAGA,-0.0148 E-score
17,CCTCATGA,-0.212 E-score
18,ATCGCGGA,0.0687 E-score
19,ACACGAGG,-0.119 E-score
20,ATAGTATA,0.334 E-score
21,ACGACACC,-0.0346 E-score
22,AAAAGCAG,-0.00674 E-score
23,AGTGAGCA,-0.117 E-score
24,AACTGCCT,0.121 E-score
25,GTTGAGGA,0.0201 E-score

row,Sequence,binding signal
1,CCCTTTAC,-0.0671 E-score
2,AAATCTCC,0.207 E-score
3,CAGCGGAG,-0.344 E-score
4,AGGACGTC,-0.138 E-score
5,CACCATTC,-0.13 E-score
6,AGCGGCAA,-0.113 E-score
7,GAAGTCCA,-0.0459 E-score
8,GAGACAAA,-0.107 E-score
9,TCAATCGA,-0.0356 E-score
10,GTAAAATA,0.306 E-score
11,AGAAGCAG,-0.0595 E-score
12,GGCTAAAA,0.0638 E-score
13,TATGGAGA,0.0429 E-score
14,AAGAAGTA,0.168 E-score
15,GCAACCTA,0.0995 E-score
16,AGTGCTAG,0.0523 E-score
17,ATTGCCAC,0.0397 E-score
18,ATCAAGGA,-0.0747 E-score
19,CGAACCCC,-0.186 E-score
20,GATTGTGA,0.0505 E-score
21,AGCAGGAG,-0.319 E-score
22,GTCGGTTA,0.00256 E-score
23,ATATCCTC,0.0405 E-score
24,ATCGACCG,0.072 E-score
25,GTGGCAAC,-0.207 E-score

row,Sequence,binding signal
1,ACTAACCG,0.0565 E-score
2,ACGTGTAG,-0.0418 E-score
3,TAGCTGAA,0.172 E-score
4,ACGACGTG,0.0128 E-score
5,CAGATCTA,0.119 E-score
6,CAAGATAC,0.0729 E-score
7,ACTGACAA,0.0467 E-score
8,TATGGGCA,-0.0382 E-score
9,CCTGAACG,-0.243 E-score
10,TAAGGGAA,0.0242 E-score
11,CGGGAGGC,-0.194 E-score
12,CTAGTGTC,-0.0331 E-score
13,AACCACCG,-0.0914 E-score
14,CTGAAGGC,-0.274 E-score
15,CACCACGA,-0.232 E-score
16,ACAAAATA,0.267 E-score
17,ATTGAAAT,0.181 E-score
18,GCGTAAGC,-0.143 E-score
19,CTCCCCCA,-0.318 E-score
20,CAGGATAC,-0.0781 E-score
21,GGGCTAGA,-0.153 E-score
22,CATGAAAA,0.0479 E-score
23,GCGTATTA,0.122 E-score
24,CAATCTCC,-0.0128 E-score
25,GGTTAGCA,0.0837 E-score

row,Sequence,binding signal
1,GCGTGAAC,-0.0676 E-score
2,ACAAATGT,0.123 E-score
3,AGCGGTAT,0.237 E-score
4,AAATCGGC,-0.0381 E-score
5,ATCCACTA,0.0698 E-score
6,AGTGGATA,0.0314 E-score
7,CTCCTGGA,0.00559 E-score
8,ACTGGATC,-0.191 E-score
9,CCATATAC,0.161 E-score
10,CAGTCGAG,-0.0692 E-score
11,AATTTGTA,0.346 E-score
12,ACGTATCA,0.105 E-score
13,CATCGGTA,0.173 E-score
14,GAACTCGC,-0.163 E-score
15,GCGTTCAC,-0.208 E-score
16,AGTTCTCC,-0.0101 E-score
17,AAATCTGG,-0.188 E-score
18,CTCAGGAG,-0.192 E-score
19,GGGCCATA,0.018 E-score
